Growth inhibition call data for 29 compounds are collected here from the antibiotic and cytotoxicity screens of Wong et al. (2023).

The list shows a part of the results.

The experiment relates to S. aureus RN4220. The experiment is described as follows: growth inhibition call (relative growth <= 0.2). As to conditions: 50 µM.
As to `COc1ccc(S(=O)(=O)N(C)C[C@H]2OCCCC[C@@H](C)Oc3ccc(NC(=O)CCC(F)(F)F)cc3C(=O)N([C@H](C)CO)C[C@@H]2C)cc1`, the growth inhibition call is “inactive”.

Consider `C[C@@H]1CCCCO[C@@H](CN(C)C(=O)C2CCCCC2)[C@@H](C)CN([C@@H](C)CO)C(=O)c2cc(NC(=O)Nc3ccc4c(c3)OCO4)ccc2O1`, for which the growth inhibition call is “inactive”.

As to `OCC1OC(Oc2ccc(O)cc2)C(O)C(O)C1O` (centres undefined), the growth inhibition call is “inactive”.

On to `CN1CCN(C(=O)C[C@@H]2CC[C@@H]3[C@H](COC[C@@H](O)CN3C(=O)Nc3cc(Cl)cc(Cl)c3)O2)CC1`, for which the growth inhibition call is “inactive”.

As for `CCS(=O)(=O)Nc1ccc2c(c1)C(=O)N(C)[C@@H]1CC[C@H](CC(=O)NCCCN3CCOCC3)O[C@H]1CO2`, the growth inhibition call was “inactive”.

With `C[C@@H]1CN([C@@H](C)CO)C(=O)c2cc(NS(C)(=O)=O)ccc2O[C@@H]1CN(C)Cc1ccc2c(c1)OCO2`, the growth inhibition call was “inactive”.

Regarding `C=CCC[C@@H](Cc1ccc(F)cc1)C(=O)OC[C@@H](NC(=O)[C@H](CC=C)CC(=O)N(CCO)Cc1ccccc1)C(C)(C)C`, the growth inhibition call was “inactive”.

As to `CCCN(C)C[C@@H]1OCCCC[C@H](C)Oc2ccc(NC(=O)CCC(F)(F)F)cc2C(=O)N([C@@H](C)CO)C[C@@H]1C`, the growth inhibition call was “inactive”.

`C[C@@H]1CN([C@H](C)CO)C(=O)c2cccc(NC(=O)c3cnccn3)c2O[C@H]1CN(C)Cc1ccc(C(=O)O)cc1`: the growth inhibition call was “inactive”.

Take `COc1ccc(-c2ccc3n(c2=O)C[C@@H]2[C@@H](CO)[C@H](C(=O)NCC4CC4)[C@H]3N2S(C)(=O)=O)cc1`: the growth inhibition call is “inactive”.

As to `CN1N=C(N)c2cn([C@@H]3O[C@H](COP(=O)(O)O)[C@@H](O)[C@H]3O)c3ncnc1c23`, the growth inhibition call is “inactive”.

For `COc1cccc(C#Cc2ccc3c(c2)O[C@H](CN(C)C(=O)CN2CCOCC2)[C@@H](C)CN([C@H](C)CO)S3(=O)=O)c1`, the growth inhibition call is “inactive”.

In the case of `C[C@H](CO)N1C[C@H](C)[C@H](CN(C)S(=O)(=O)c2ccccc2)OCCCC[C@H](C)Oc2ccc(NC(=O)c3ccccc3)cc2C1=O`, the growth inhibition call was “inactive”.

`O=C(Cn1cc(COc2ccc3ccccc3c2)nn1)NS(=O)(=O)c1ccccc1OC(F)(F)F`: the growth inhibition call was “inactive”.

Take `C[C@H]1CN([C@@H](C)CO)C(=O)c2ccccc2-c2ccccc2CO[C@@H]1CN(C)S(=O)(=O)c1ccc(C(F)(F)F)cc1`: the growth inhibition call is “inactive”.

On to `C[C@@H]1CN([C@H](C)CO)C(=O)Cc2cc(NC(=O)CCCCCC(=O)Nc3ccccc3N)ccc2O[C@H]1CN(C)C(=O)Nc1ccc(C(F)(F)F)cc1`, for which the growth inhibition call is “inactive”.

In the case of `CN1CCN(C(=O)C[C@@H]2CC[C@@H]3[C@H](COC[C@@H](O)CN3S(=O)(=O)c3cccc(Cl)c3)O2)CC1`, the growth inhibition call is “inactive”.

`COC(=O)c1cc(C)cc(=O)o1`: the growth inhibition call is “inactive”.

On to `CCCCc1nn(-c2ccccc2C(F)(F)F)c(=O)n1Cc1ccc(-c2ccccc2S(=O)(=O)NC(=O)c2sccc2C)cc1`, for which the growth inhibition call was “active”.

In the case of `CN1CCN(C(=O)C[C@H]2CC[C@@H]3[C@H](COc4ccc(NC(=O)c5cccs5)cc4C(=O)N3C)O2)CC1`, the growth inhibition call is “inactive”.

Take `COC(=O)CCCCCCC(=O)Nc1ccc([C@H]2O[C@@H](CSc3nc(-c4ccccc4)c(-c4ccccc4)o3)C[C@H](c3ccc([N+](=O)[O-])cc3)O2)cc1`: the growth inhibition call was “inactive”.

In the case of `O=C(C[C@@H]1C=C[C@@H](NC(=O)Nc2ccc3c(c2)OCO3)[C@H](CO)O1)NCCCN1CCOCC1`, the growth inhibition call was “inactive”.

Regarding `CC(C)NC(=O)Nc1ccc2c(c1)CC(=O)N([C@@H](C)CO)C[C@@H](C)[C@@H](CN(C)Cc1ccc(-c3ccccc3)cc1)O2`, the growth inhibition call was “inactive”.

Consider `C[C@@H]1CN([C@@H](C)CO)C(=O)c2c(c3ccccc3n2C)-c2ccccc2CO[C@H]1CN(C)C(=O)NC1CCCCC1`, for which the growth inhibition call is “inactive”.

`COc1ccc(S(=O)(=O)N(C)C[C@@H]2Oc3ncc(-c4ccncc4)cc3C(=O)N([C@@H](C)CO)C[C@H]2C)cc1`: the growth inhibition call is “inactive”.

Consider `Cc1ccc(S(=O)(=O)N(C)C[C@@H]2OCCCC[C@@H](C)Oc3ccc(NC(=O)CCC(F)(F)F)cc3C(=O)N([C@@H](C)CO)C[C@H]2C)cc1`, for which the growth inhibition call was “inactive”.

In the case of `C[C@@H]1CCCCO[C@@H](CN(C)Cc2ccc(C(F)(F)F)cc2)[C@@H](C)CN([C@@H](C)CO)C(=O)c2cc(NC(=O)Nc3cccc4ccccc34)ccc2O1`, the growth inhibition call was “inactive”.

In the case of `C[C@@H]1CN([C@@H](C)CO)C(=O)c2cccc(NS(=O)(=O)c3ccccc3)c2O[C@@H]1CN(C)Cc1ccc(Oc2ccccc2)cc1`, the growth inhibition call is “inactive”.

Regarding `C[C@H](CO)N1C[C@H](C)[C@@H](CN(C)C(=O)Cc2ccncc2)Oc2cc(-c3cncnc3)ccc2S1(=O)=O`, the growth inhibition call was “inactive”.
